T1: Human OX40 (R&D systems, #3358_OX) (human, UniProt P43489 29-216)
T1 construct: Bought; Several catalogue numbers are given for it; also called human OX40 (R&D Systems, 3388-OX); OX40-Fc (R&D systems, #3358_OX); not shown: Fc part
T1 sequence: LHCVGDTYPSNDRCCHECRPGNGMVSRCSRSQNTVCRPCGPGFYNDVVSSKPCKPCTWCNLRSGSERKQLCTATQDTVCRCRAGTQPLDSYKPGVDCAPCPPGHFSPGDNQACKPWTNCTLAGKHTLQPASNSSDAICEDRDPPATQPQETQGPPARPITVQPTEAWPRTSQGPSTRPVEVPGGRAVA

B1: bispecific molecule 1164/1141 (OX40 x CTLA-4) (bispecific antibody)
heavy: EVQLLESGGGLVQPGGSLRLSCAASGFTFYGSSMYWVRQAPGKGLEWVSGIYSSGGYTSYADSVKGRFTISRDNSKNTLYLQMNSLRAEDTAVYYCARGVPHGYFDYWGQGTLVTVSS[… human IgG1 constant region …]
light: not shown
B2: bispecific molecule 1168/1141 (OX40 x CTLA-4) (bispecific antibody)
heavy: EVQLLESGGGLVQPGGSLRLSCAASGFTFSGSSMSWVRQAPGKGLEWVSSISYYGGYTYYADSVKGRFTISRDNSKNTLYLQMNSLRAEDTAVYYCARYFPHYYFDYWGQGTLVTVSS[… human IgG1 constant region …]
light: not shown
B3: bispecific molecule 1542/1141 (OX40 x CTLA-4) (bispecific antibody)
heavy: EVQLLESGGGLVQPGGSLRLSCAASGFTFGSSSMYWVRQAPGKGLEWVSGIGYYSYSTSYADSVKGRFTISRDNSKNTLYLQMNSLRAEDTAVYYCARGYPHHYFDYWGQGTLVTVSS[… human IgG1 constant region …]
light: not shown

Legend:
CTLA-4 (BMS, Orencia) [1] = biological target: T2, CTLA-4 (BMS, Orencia) (human, UniProt P16410 38-152); test: cell-based or functional assay
CTLA-4 (BMS, Orencia) [2] = biological target: T2, CTLA-4 (BMS, Orencia); test: cell-based or functional assay; remark: listed apart in the source
T2 sequence (P16410 38-152 limits assumed): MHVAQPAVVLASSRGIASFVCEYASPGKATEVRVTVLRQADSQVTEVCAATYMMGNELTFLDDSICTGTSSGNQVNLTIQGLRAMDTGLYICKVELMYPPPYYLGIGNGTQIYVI

[3] = biological target: T1, Human OX40 (R&D systems, #3358_OX); test: SPR (Biacore), immobilised human OX40
Procedure: Human OX40 (R&D systems, #3358_OX) was immobilized to the Biacore™ sensor chip, CM5, using conventional amine coupling. The tested antibodies and controls (serially diluted ⅓ or ½ 100-2 nM) were analyzed for binding in HBS-P (GE, #BR-1003-68) at a flow rate of […]. The association was followed for 3 minutes and the dissociation for 20 minutes. Regeneration was performed twice using 50 mM NaOH for 30 seconds. The kinetic parameters and the affinity constants were calculated using 1:1 Langmuir model with drifting baseline.

[4] = biological target: T1, Human OX40 (R&D systems, #3358_OX); test: dual ELISA: OX40-Fc coated, bispecific molecule in dilutions, biotinylated CTLA-4 (1 ug/ml), HRP-streptavidin; the signal needs both bindings at once
Procedure: The ELISA plates were washed with PBST and then blocked with PBST+2% BSA for 1 h at room temperature and then washed again with PBST. […] SuperSignal Pico Luminescent was used as substrate and luminescence was measured using Fluostar Optima.

| Binder | Fold change in IL-2 level induced by bispecific molecule compared to the corresponding combination of the monospecific molecules at 1.5 nM (CTLA-4 (BMS, Orencia) [1]) [fold] | Mean IL-2 level (pg/ml) induced at 1.5 nM (CTLA-4 (BMS, Orencia) [2]) [pg/mL] | Kd [3] [nM] | koff [3] [s⁻¹] | kon [3] [M⁻¹ s⁻¹] | EC50 (read off the curve) [4] [nM] |
| --- | --- | --- | --- | --- | --- | --- |
| B1 | 7.6 | 5020 | 1.94 | 0.000172 | 88700 | ~0.6 |
| B2 | 7.2 | 2680 | 1.07 | 0.000305 | 284000 | ~0.5 |
| B3 | – | 2670 | – | – | – | – |

Source: patent publication US20210238298A1 (ALLIGATOR BIOSCIENCE, published 2021)
